Experimental data: PubChem BioAssay AID493208 (National Center for Advancing Translational Sciences (NCATS), 2011)
About 340 (0.77%) of roughly 44,000 compounds were called active. Inconclusive results (about 5%) are left out. Calls come from the whole dose curve; as a rule, active = well fitted inhibition curve with a large enough effect; inconclusive = small, poorly fitted or top-dose-only effect; inactive = flat fitted curve, though single readings scatter. The list shows a part of the results.

assay: Acumen qHTS Assay for Inhibitors of the mTORC1 Signaling Pathway in MEF (Tsc2-/-, p53-/-) Cells: Sytravon; settings: phospho-rpS6 immunofluorescence/PI, 24 h; series mostly up to 38.3 µM; activity change, negative = inhibition: at the top concentration;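 note: plate controls were DMSO for no effect and rapamycin for full effect; nearly all actives have a fitted effect of over 50% in size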
How it was run: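 Readout is phospho-S6 Alexa 488 signal normalized to PI per well, reported as % active cells with thresholds set from rapamycin (7.5 nM) and DMSO controls. Cells: Tsc2-/-, p53-/- MEFs, 24 hrs compound at 37 C; PI cell number serves as viability.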

Row | Structure (SMILES) | activity change, negative = inhibition
1 | COCCCNC(=O)c1ccc2c(c1)N(Cc1ccccc1)C(=O)c1ccccc1S2 | inactive: 7.98%
2 | O=C(CSc1nc(=O)n(CCN2CCOCC2)c2c1CCC2)Nc1ccccc1 | inactive: 2.56%
3 | COc1ccccc1CNC(=O)CCCn1c(=O)c2ccccc2n(CC(=O)Nc2c(C)cc(C)cc2C)c1=O | inactive: 0.897%
4 | CCn1cc(C(=O)NCc2ccccc2Cl)c(=O)c2cc(S(=O)(=O)N3CCc4ccccc4C3)ccc21 | inactive: -2.58%
5 | CCOC(=O)c1sc(NC(=O)C2c3ccccc3Oc3ccccc32)c(C(=O)OCC)c1C | inactive: 6.2%
6 | COc1ccc(C(=O)Nc2nnc(S(=O)(=O)N(CC(C)C)c3ccc(C)cc3)s2)cc1OC | inactive: 6.29%
7 | O=C(Nc1cc(C(F)(F)F)ccc1Cl)c1cc(-c2ccc3c(c2)OCCO3)on1 | inactive: -4.75%
8 | COC(=O)c1cccnc1-n1c(=O)c2cccnc2n(CC(=O)Nc2ccc(C)cc2C)c1=O | inactive: -2.63%
9 | Cc1ccc2c(c1)N(C(=O)CCC(=O)NCc1ccccc1Cl)CC(C)O2 (stereo unspecified) | inactive: 0.177%
10 | O=C(Nc1ccc(S(=O)(=O)Nc2ncccn2)cc1)c1ccccc1Cl | inactive: 1.96%
11 | COc1ccc(NC(=O)CSc2nnc(NC(=O)Nc3ccccc3)s2)cc1OC | inactive: -2.85%
12 | CC(NC(=O)Cn1c(=O)oc2cc(S(=O)(=O)NCc3ccccc3)ccc21)c1ccccc1 (stereo unspecified) | inactive: -0.0526%
13 | Cc1ccccc1Nc1nc(-c2cccc(Cl)c2)c2c(n1)-c1ccccc1OC2 | inactive: -10.5%
14 | CC(=O)c1ccc(NC(=O)COc2ccccc2-c2nc(-c3cccc(C)c3)no2)cc1 | inactive: -0.765%
15 | CCOCCCNc1ncnc2onc(C)c12 | inactive: -0.465%
16 | Cc1ccc(Cl)cc1N1CCN(S(=O)(=O)c2ccc3c(c2)CC(C)N3C(=O)C2CCC2)CC1 (stereo unspecified) | inactive: 0.73%
17 | CC(=O)c1ccc(NC(=O)c2sc(-n3nc(C)c(Cc4ccccc4)c3C)nc2C)cc1 | inactive: 0.81%
18 | Cc1cccc(NC(=O)Nc2nnc(N(C)Cc3ccccc3)s2)c1 | inactive: -2.48%
19 | COc1ccc(-c2nn3c(-c4ccccc4C)nnc3c3ccccc23)cc1 | inactive: 2.33%
20 | CN(C(=O)Cn1cc(S(=O)(=O)Cc2ccccc2Cl)c2ccccc21)c1ccccc1 | inactive: 1.43%
21 | Cn1c(=O)c2c(ncn2CC(=O)Nc2cccc(Cl)c2Cl)n(C)c1=O | inactive: 14.6%
22 | Cc1ccccc1C(=O)NC1(C(F)(F)F)C(=O)Nc2c1c(=O)[nH]c(=O)n2-c1ccc(F)cc1 (stereo unspecified) | inactive: -2.71%
23 | CCN(Cc1ccccc1)Cc1c(O)ccc2c(=O)c(-c3ccc(Cl)cc3Cl)coc12 | inactive: -2.49%
24 | Cc1noc(/C=C/c2cccs2)c1S(=O)(=O)N1CCC(C(=O)NCc2ccccc2Cl)CC1 | inactive: -4.06%
25 | CCCCNC(=O)CCCn1c(=O)c2ccccc2n(CC(=O)Nc2ccccc2OCC)c1=O | inactive: -9.93%
26 | CCCc1cnc2c(c1SCC(=O)Nc1ccc(C)c(Cl)c1)c(=O)n(C)c(=O)n2C | inactive: -17.6%
